Experimental data as given in the RNAGym collection of RNA variant scans (doi:10.1073/pnas.2313332121).
Variants at the background level are over-represented here.

B1: TPR 5TU (parent)
chain: GGAUCUUCUCGAUCUAACAAAAAAGACAAAUCUGCCACAAAGCUUGAGAGCAUCUUCGGAUGCAGAGGCGGCAGCCUUCGGUGGCGCGAUAGCGCCAACGUUCUCAACUAUGACACGCAAAACGCGUGCUCCGUUGAAUGGAGUUUAUCAUG

Variants of: B1
Assay: polymerase ribozyme fitness, log enrichment relative to wild type (log ratio); higher = more active; in vitro selection for triplet polymerase activity
Summary of the method: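 After PCR construction and transcription, each subunit's mutant library from a heterodimeric triplet polymerase ribozyme was annealed with a biotinylated primer, the partner subunit and triplets. Incubation was frozen, at −7 °C, and extended constructs were gel-excised, bound to streptavidin beads and amplified by RT-PCR, in one selection round done in triplicate. Fitness is the logarithm of a genotype's enrichment divided by that of the wild type, from inverse-variance-weighted replicate averages of Illumina-sequenced inputs and outputs. The base of the logarithm is 2, and genotypes needed ≥10 input reads and ≥1 read per output.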

Row | Variant | polymerase ribozyme fitness (log ratio)
1 | A60G G71A C75A C93U C118G | ≤ -4.2
2 | A60G G74A C85U C149U | ≤ -4.2
3 | A60C C85G C149G | ≤ -4.2
4 | A60U G92A G140A | ≤ -4.2
5 | A60U A91G | ≤ -4.2
6 | A60U G67A C125G G136C | ≤ -4.2
7 | U61G C63A G68U A97U | ≤ -4.2
8 | A60C G94C A97G A98G U134C | -3.8
9 | A60U G81U C85U G92U C93G C96A C103U G128A | ≤ -4.2
10 | U61G U104C A107G A119C A142U | ≤ -4.2
11 | G59U U130C G141C A150G | ≤ -4.2
12 | U61A C116G G141U G143C | ≤ -4.2
13 | U61A G62U A89C G92A A107C A110G | ≤ -4.2
14 | G59C G86C G143U | ≤ -4.2
15 | U61C C149A | ≤ -4.2
16 | U61A G84U C114U | -3.85
17 | G59U G94U C105U G124U G143C | -3.65
18 | G59C C103U | 0.229
19 | U61A C76A C85G G140A C149G | ≤ -4.2
20 | G59U C76A G88A U104G | ≤ -4.2
21 | A60U G80C U104C | ≤ -4.2

Row | Variant | polymerase ribozyme fitness (log ratio)
22 | A60C C79G C85U U90G G94U C149U | ≤ -4.2
23 | U61G C63A G71U G80A G94U C105G C116G U139A | ≤ -4.2
24 | A60C U82A U104A C108G | ≤ -4.2
25 | U61A C79A G83C | ≤ -4.2
26 | A60G A66C C93U U145A | ≤ -4.2
27 | A60G A97C A98G U102A G133U | ≤ -4.2
28 | G59C G62U G86A C87U | ≤ -4.2
29 | U61G U78A C79A C87G U127G G136A | ≤ -4.2
30 | A60C A120U A137C G140U | ≤ -4.2
31 | A60C A73G G84A C123A G128U | ≤ -4.2
32 | U61A C108A C118A | ≤ -4.2
33 | G59U C87G C95U U101G C149G | ≤ -4.2
34 | A60C A66C C96A A110U U144G | ≤ -4.2
35 | A60U G92U G141C | -2.82
36 | U61G U78G C132G | ≤ -4.2
37 | G59C C95G C103U G126A | -2.28
38 | U61A G80A A89C C93U A120U C132A U146A | ≤ -4.2
39 | U61A A73G C93U C125A | -3.14
40 | A60U C63A C79G C96U A122U C123U | ≤ -4.2
41 | A60U G92U A138U | ≤ -4.2
42 | A60U G86U C108U | ≤ -4.2

Row | Variant | polymerase ribozyme fitness (log ratio)
43 | U61A G65C C85A C96G U151C | ≤ -4.2
44 | G59U G67C G136A | ≤ -4.2
45 | G59C C87A | ≤ -4.2
46 | U61A C114U A142C | ≤ -4.2
47 | A60G G74A | -3.26
48 | G59U G81A C85G A106C | -3.51
49 | A60C C76U | -3.17
50 | G59U G65A C114A C118U U134C U148A | ≤ -4.2
51 | U61C A66U C85A C131U | ≤ -4.2
52 | G59C U78C C85A U144A A150U | ≤ -4.2
53 | U61G C95U | -2.07
54 | G59U G88C U151G | ≤ -4.2
55 | A60G C95A U101C | 0.139
56 | U61A C96G U109A | -3.32
57 | U61G C72A C79U A98U U102G C118U A150G | ≤ -4.2
58 | U61G C93G C99G C123G C125G | ≤ -4.2
59 | A60G G71U G86A A91U U101G C123A U146G | ≤ -4.2
60 | A60G C96G | -0.394
61 | A60G C96U | 0.674
62 | U61A A64U | ≤ -4.2
63 | U61A C108U | -3.86

Row | Variant | polymerase ribozyme fitness (log ratio)
64 | G59C C93G A97U U127C A137G | ≤ -4.2
65 | U61G G71U C87U G143A | ≤ -4.2
66 | U61A U90C C96A A115U G152U | ≤ -4.2
67 | U61A C95A A97G A106G U109G U151C | ≤ -4.2
68 | U61A G74A C76U C87A C108U A142U | ≤ -4.2
69 | U61A G88U G94C G141U U148A | ≤ -4.2
70 | U61A C63U C85G A119U C131A | ≤ -4.2
71 | U61G C85A G136C U144C | ≤ -4.2
72 | G59U C72U C87U U134A A137U | ≤ -4.2
73 | G59U C85U A150U | 1.1
74 | G59C G86A G112U | ≤ -4.2
75 | U61A A66C C87U | ≤ -4.2
76 | A60G C72U C87G A107G A119G | ≤ -4.2
77 | A60G C93G A147G | -4.1
78 | G59U G86A C118G | -2.48
79 | G59U G88U A121U U127A U134G | ≤ -4.2
80 | U61G C93G A98U A138C | ≤ -4.2
81 | A60U G70A C85U G86A A107U U130C | ≤ -4.2
82 | A60G C87A U109A C132G | ≤ -4.2
83 | A60U C76A A120U | -1.94
84 | A60C C96U A142C G143A | ≤ -4.2
